{"source": "the supplement of paper PMC9446081", "note": "Out of some 39,000 compounds screened, about 220 (0.56%) showed activity. Some of the results follow.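 Note: static incubation at 37 °C against the wild-type strain, values averaged over two biological replicates.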", "data": [{"test_system": "Escherichia coli K-12 BW25113", "assay": "relative growth (OD600 normalised to plate interquartile mean) (fraction); higher = less growth inhibition, active = 0.2 or less", "settings": "50 µM; LB; incubation time: overnight (16-24 h)", "values": [{"smiles": "C[C@@H]1CN([C@H](C)CO)C(=O)c2cc(C#CCN(C)C)cnc2O[C@@H]1CN(C)Cc1ccc(C(=O)O)cc1", "relative growth": "inactive: 1"}, {"smiles": "O=C(C[C@@H]1CC[C@H]2[C@@H](COC[C@@H](O)CN2C(=O)c2ccccc2F)O1)N1CCN(c2ccccc2)CC1", "relative growth": "inactive: 0.986"}, {"smiles": "C[C@@H]1CCCCO[C@@H](CN(C)Cc2ccccc2)[C@@H](C)CN([C@@H](C)CO)C(=O)c2cc(NS(=O)(=O)c3cccs3)ccc2O1", "relative growth": "inactive: 0.993"}, {"smiles": "C[C@@H]1CN([C@H](C)CO)C(=O)c2cc(NC(=O)Nc3ccc(F)cc3)ccc2O[C@@H](C)CCCCO[C@H]1CN(C)Cc1ccncc1", "relative growth": "inactive: 1.03"}, {"smiles": "CN1CCN(c2c(F)cc3c(=O)c(C(=O)O)cn(CCF)c3c2F)CC1", "relative growth": "active: 0.0442"}, {"smiles": "CO[C@@H]1[C@H](N(C)C(=O)c2ccccc2)C[C@H]2O[C@]1(C)n1c3ccccc3c3c4c(c5c6ccccc6n2c5c31)C(=O)NC4", "relative growth": "inactive: 1.04"}, {"smiles": "C[C@@H]1CN([C@@H](C)CO)C(=O)c2c(c3ccccc3n2C)-c2ccccc2CO[C@H]1CN(C)Cc1cccc(F)c1", "relative growth": "inactive: 0.986"}, {"smiles": "COc1ccc(S(=O)(=O)Nc2ccc3c(c2)CC(=O)N([C@H](C)CO)C[C@@H](C)[C@@H](CN(C)Cc2ccc(C(=O)O)cc2)O3)cc1", "relative growth": "inactive: 0.991"}, {"smiles": "Nc1ccc(C(F)(F)F)cc1Cl", "relative growth": "inactive: 1.01"}, {"smiles": "OCC1OC(O)(CO)C(O)C1O", "note": "(centres undefined)", "relative growth": "inactive: 1.11"}, {"smiles": "C[C@@H]1CCCCO[C@H](CN(C)C(=O)CCC(F)(F)F)[C@H](C)CN([C@@H](C)CO)C(=O)c2cc(NC(=O)CCC(F)(F)F)ccc2O1", "relative growth": "inactive: 0.982"}, {"smiles": "C[C@@]1(C(=O)O)NCCc2cc(O)c(O)cc21", "relative growth": "inactive: 0.971"}, {"smiles": "OCc1cncnc1", "relative growth": "inactive: 1.02"}, {"smiles": "C[C@@H]1O[C@H](O[C@H]2[C@H](OC(=O)[C@]34CCC(C)(C)C[C@@H]3C3=CC[C@@H]5[C@@]6(C)CC[C@H](O[C@@H]7O[C@@H](C)[C@H](O[C@@H]8OC[C@@H](O)[C@H](O)[C@H]8O)[C@@H](O)[C@H]7O)C(C)(C)[C@@H]6CC[C@@]5(C)[C@]3(C)C[C@@H]4O)OC[C@H](O)[C@H]2O)[C@H](O)[C@H](O)[C@H]1O[C@@H]1O[C@H](CO)[C@@H](O)[C@H](O)[C@H]1O", "relative growth": "inactive: 1"}, {"smiles": "C[C@@H]1CN([C@H](C)CO)C(=O)c2cc(NC(=O)Nc3ccc(C(F)(F)F)cc3)ccc2O[C@@H](C)CCCCO[C@@H]1CN(C)CC1CCCCC1", "relative growth": "inactive: 0.963"}, {"smiles": "Cc1noc(C)c1NC(=O)Nc1ccc2c(c1)C(=O)N([C@H](C)CO)C[C@@H](C)[C@@H](CN(C)S(=O)(=O)c1cccs1)OCCCC[C@@H](C)O2", "relative growth": "inactive: 1.02"}, {"smiles": "COc1ccc(NC(=O)Nc2cccc3c2O[C@H](CN(C)Cc2ccc(-c4ccccc4)cc2)[C@@H](C)CN([C@H](C)CO)C3=O)cc1", "relative growth": "inactive: 1.01"}, {"smiles": "C[C@@H]1CCCCO[C@@H](CN(C)C(=O)Nc2cccc3ccccc23)[C@@H](C)CN([C@H](C)CO)C(=O)c2cc(NC(=O)Nc3ccccc3)ccc2O1", "relative growth": "inactive: 1.06"}, {"smiles": "C[C@H](CO)N1C[C@H](C)[C@H](CN(C)Cc2ccc(C(F)(F)F)cc2)Oc2c(NC(=O)Nc3ccc(F)cc3)cccc2C1=O", "relative growth": "inactive: 0.997"}, {"smiles": "C[C@H](CO)N1C[C@H](C)[C@@H](CN(C)C(=O)Nc2ccc3c(c2)OCO3)OCCCC[C@H](C)Oc2ccc(NS(=O)(=O)c3ccc(Cl)cc3)cc2C1=O", "relative growth": "inactive: 1.03"}, {"smiles": "C[C@@H]1CCCCO[C@@H](CN(C)C(=O)Nc2cccc3ccccc23)[C@@H](C)CN([C@@H](C)CO)C(=O)c2cc(NC(=O)Nc3cccc4ccccc34)ccc2O1", "relative growth": "inactive: 0.849"}, {"smiles": "Cc1noc(C)c1NC(=O)Nc1ccc2c(c1)C(=O)N([C@@H](C)CO)C[C@@H](C)[C@H](CN(C)Cc1ccc(C(=O)O)cc1)OCCCC[C@H](C)O2", "relative growth": "inactive: 1.01"}, {"smiles": "Nc1nonc1C(=O)OCC(=O)N1CCOCC1", "relative growth": "inactive: 0.916"}, {"smiles": "CC(=O)On1cc(F)c(=O)[nH]c1=O", "relative growth": "active: 0.0691"}, {"smiles": "C[C@@H]1CN([C@@H](C)CO)C(=O)c2cc(NC(=O)C3CC3)ccc2O[C@H]1CN(C)C(=O)Nc1ccc2c(c1)OCO2", "relative growth": "inactive: 0.977"}, {"smiles": "Cc1ccc(Oc2nnc(-c3cccs3)c3ccccc23)cc1", "relative growth": "inactive: 0.901"}, {"smiles": "Cc1noc(C)c1NC(=O)Nc1cccc2c1O[C@H](CN(C)Cc1ccc(C(=O)Nc3ccccc3N)cc1)[C@@H](C)CN([C@H](C)CO)C2=O", "relative growth": "inactive: 1.03"}, {"smiles": "Cn1cnc(CN)c1", "relative growth": "inactive: 1.03"}, {"smiles": "C[C@H]1CN([C@@H](C)CO)C(=O)Cc2cc(NC(=O)Nc3ccc4c(c3)OCO4)ccc2O[C@@H]1CN(C)Cc1ccc(C(=O)Nc2ccccc2N)cc1", "relative growth": "inactive: 1"}, {"smiles": "C[C@H]1CN([C@@H](C)CO)C(=O)c2c(c3ccccc3n2C)-c2ccccc2CO[C@H]1CN(C)C(=O)c1cc(Cl)cc(Cl)c1", "relative growth": "inactive: 1.15"}, {"smiles": "O=C(C[C@H]1CC[C@@H]2[C@H](COC[C@H](O)CN2C(=O)c2cccnc2)O1)NCC1CC1", "relative growth": "inactive: 0.993"}, {"smiles": "Cc1noc(C)c1NC(=O)N(C)C[C@H]1OCCCC[C@@H](C)Oc2ccc(NS(=O)(=O)c3ccccc3)cc2C(=O)N([C@H](C)CO)C[C@H]1C", "relative growth": "inactive: 1.01"}, {"smiles": "O=C(O)CC[C@H]1CCCCN1", "relative growth": "inactive: 0.996"}, {"smiles": "Cc1ccc(S(=O)(=O)N2C[C@H](O)COC[C@@H]3O[C@H](CC(=O)N4CCc5ccccc5C4)CC[C@H]32)cc1", "relative growth": "inactive: 1"}, {"smiles": "C[C@H]1CCCCO[C@@H](CN(C)CC2CCCCC2)[C@@H](C)CN([C@@H](C)CO)C(=O)c2cc(NC(=O)c3ccccc3)ccc2O1", "relative growth": "inactive: 1.01"}, {"smiles": "CON=C(C(=O)NC1C(=O)N2C(C(=O)[O-])=C(COC(N)=O)CSC12)c1ccco1.[Na+]", "note": "(centres undefined)", "relative growth": "active: 0.0464"}, {"smiles": "COc1ccc(S(=O)(=O)N(C)C[C@@H]2Oc3cc(C#CC4CCCC4)ccc3S(=O)(=O)N([C@H](C)CO)C[C@H]2C)cc1", "relative growth": "inactive: 1.05"}, {"smiles": "C[C@@H]1CN([C@H](C)CO)C(=O)c2cccc(NC(=O)c3nc4ccccc4s3)c2O[C@H]1CN(C)Cc1ccc(C(=O)Nc2ccccc2N)cc1", "relative growth": "inactive: 0.992"}, {"smiles": "COc1ccc(NC(=O)Nc2ccc3c(c2)C(=O)N([C@@H](C)CO)C[C@@H](C)[C@@H](CN(C)C(=O)Nc2cccc4ccccc24)O3)cc1", "relative growth": "inactive: 1.04"}, {"smiles": "O=C1[C@@H]2[C@H](C(=O)N1c1ccccc1)C13COC[C@H](c4ccccc4)N1C(=O)C2(C(=O)NCCc1c[nH]c2ccccc12)O3", "note": "(some centres undefined)", "relative growth": "inactive: 0.999"}, {"smiles": "C[C@@H]1CCCCO[C@H](CN(C)C(=O)c2ccccc2)[C@H](C)CN([C@@H](C)CO)C(=O)c2cc(NC(=O)C3CCCCC3)ccc2O1", "relative growth": "inactive: 1"}, {"smiles": "COc1ccc(NC(=O)Nc2ccc3c(c2)C(=O)N([C@@H](C)CO)C[C@H](C)[C@@H](CN(C)Cc2ccccc2)OCCCC[C@@H](C)O3)cc1", "relative growth": "inactive: 1.01"}, {"smiles": "C[C@H](CO)N1C[C@H](C)[C@@H](CN(C)Cc2ccc(C(=O)O)cc2)OCc2ccccc2-c2c(n(C)c3ccccc23)C1=O", "relative growth": "inactive: 0.997"}, {"smiles": "CC(C)N1CC[C@@H](CN(C)Cc2ccc(Cl)cc2)Oc2c(NC(=O)c3ccncc3)cccc2C1=O", "relative growth": "inactive: 0.988"}, {"smiles": "CCO[C@@H]1OC(C(=O)N2CCOCC2)=C[C@H](c2ccccc2)[C@H]1CCCOC(=O)NCCCCCC(=O)NO", "relative growth": "inactive: 0.98"}, {"smiles": "CC1(C)OC2CC3C4CCC5=CC(=O)C=CC5(C)C4(F)C(O)CC3(C)C2(C(=O)CO)O1", "note": "(centres undefined)", "relative growth": "inactive: 1.11"}, {"smiles": "C[C@H](CO)N1C[C@H](C)[C@H](CN(C)Cc2ccccn2)Oc2ncc(C#Cc3cccc(F)c3)cc2C1=O", "relative growth": "inactive: 0.98"}, {"smiles": "C[C@@H]1CN([C@@H](C)CO)C(=O)c2cc(Br)cnc2O[C@H]1CN(C)S(=O)(=O)c1ccc(F)cc1", "relative growth": "inactive: 1"}, {"smiles": "C[C@H]1CCCCO[C@H](CN(C)C(=O)C2CCCCC2)[C@@H](C)CN([C@@H](C)CO)C(=O)c2cc(NS(=O)(=O)c3cccs3)ccc2O1", "relative growth": "inactive: 1"}, {"smiles": "Cc1ccc(S(=O)(=O)Nc2ccc3c(c2)C(=O)N([C@H](C)CO)C[C@@H](C)[C@H](CN(C)S(=O)(=O)c2ccc(F)cc2)O3)cc1", "relative growth": "inactive: 1.01"}, {"smiles": "C[C@@H]1CN([C@@H](C)CO)C(=O)CCCn2cc(nn2)CO[C@@H]1CN(C)C(=O)CCCN(C)C", "relative growth": "inactive: 0.992"}, {"smiles": "CSC1=NCN(CCCO)CN1", "relative growth": "inactive: 1.01"}, {"smiles": "CNc1ccccc1C(N)=O", "relative growth": "inactive: 0.984"}, {"smiles": "C[C@H](CO)N1C[C@H](C)[C@H](CN(C)CC2CC2)OCCCC[C@H](C)Oc2ccc(NC(=O)Nc3ccc4c(c3)OCO4)cc2C1=O", "relative growth": "inactive: 0.969"}, {"smiles": "C[C@@H]1CCCCO[C@H](CN(C)C(=O)Nc2ccc(C(F)(F)F)cc2)[C@@H](C)CN([C@@H](C)CO)C(=O)c2cc(NC(=O)Nc3cccc4ccccc34)ccc2O1", "relative growth": "inactive: 1.02"}, {"smiles": "Nc1cc(C(Cl)=C(Cl)Cl)c(S(N)(=O)=O)cc1S(N)(=O)=O", "relative growth": "inactive: 1.14"}, {"smiles": "COc1ccc(CN(C)C[C@@H]2OCCCC[C@@H](C)Oc3ccc(NC(=O)Nc4ccc(OC)cc4)cc3C(=O)N([C@H](C)CO)C[C@@H]2C)cc1", "relative growth": "inactive: 0.925"}, {"smiles": "C[C@@H]1CN([C@H](C)CO)C(=O)c2cc(NS(=O)(=O)c3ccc(F)cc3)ccc2O[C@H]1CN(C)Cc1ccncc1", "relative growth": "inactive: 1.02"}, {"smiles": "CO[C@H]1C[C@H](O[C@@H]2/C(C)=C/C[C@@H]3C[C@@H](C[C@]4(CC[C@H](C)[C@@H](C5CCCCC5)O4)O3)OC(=O)[C@@H]3C=C(C)/C(=N/O)[C@H]4OC/C(=C\\C=C\\[C@@H]2C)[C@]43O)O[C@@H](C)[C@@H]1O", "relative growth": "inactive: 1.01"}]}]}
